Assay results as given in PubChem BioAssay AID2147 (National Center for Advancing Translational Sciences (NCATS), 2009).
Hit rate of the full screen: of about 230,000 compounds, about 3,600 (1.6%) were called active. The inconclusive results got no clear call from the source; some entries with a clear call stand among them for comparison. Calls come from the whole dose curve; as a rule, active = well fitted inhibition curve with a large enough effect (not every such curve was filed as active); inconclusive = small, poorly fitted or top-dose-only effect, or another doubt; inactive = no such curve, though single readings can be large or run the other way. Where the call is inconclusive, the potency comes from a doubtful curve fit.

Target: Lysine-specific demethylase 4E (Homo sapiens) (UniProt B2RXH2)
Assay: qHTS Assay for Inhibitors of Human Jumonji Domain Containing 2E (JMJD2E)
Conditions: JMJD2E catalytic domain, FDH-coupled NADH fluorescence (FDH is formaldehyde dehydrogenase); series mostly up to 57.1 µM; activity change, negative = inhibition: at the top concentration
Note: nearly all actives have a fitted effect of over 50% in size.
Potency is the fitted concentration of half-maximal effect; tags give direction and shape of the fitted curve.
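Throughout, for activity change, negative = inhibition: 0% = wells with enzyme and -100% = buffer wells without enzyme.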

Sequence of UniProt B2RXH2 (B2RXH2 whole entry, looked up, the tested form may be a part): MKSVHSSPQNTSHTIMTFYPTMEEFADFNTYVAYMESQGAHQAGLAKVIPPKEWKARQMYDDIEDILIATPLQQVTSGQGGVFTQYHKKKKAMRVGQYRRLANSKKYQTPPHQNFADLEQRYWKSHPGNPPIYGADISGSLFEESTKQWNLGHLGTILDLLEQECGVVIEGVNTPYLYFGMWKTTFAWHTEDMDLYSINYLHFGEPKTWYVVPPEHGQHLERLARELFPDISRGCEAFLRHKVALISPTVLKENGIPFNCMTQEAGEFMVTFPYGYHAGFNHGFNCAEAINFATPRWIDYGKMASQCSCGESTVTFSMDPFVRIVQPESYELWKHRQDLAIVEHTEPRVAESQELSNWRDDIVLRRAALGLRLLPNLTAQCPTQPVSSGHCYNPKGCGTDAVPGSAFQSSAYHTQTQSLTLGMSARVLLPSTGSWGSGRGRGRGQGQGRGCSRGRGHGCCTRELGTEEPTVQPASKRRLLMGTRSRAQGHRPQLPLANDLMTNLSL

| SMILES | activity change, negative = inhibition | Potency |
| --- | --- | --- |
| CCOC(=O)/C(C#N)=C/c1cc2ccccc2nc1N1CCCCC1 | inactive: 0.174% | – |
| O=C(O)C(=O)/C(=C\c1cccc(Cl)c1)c1ccc2ccccc2n1 | – | inconclusive: 28.2 µM [inhibitor, partial curve] |
| CCCC(c1nnnn1CCOC)N(Cc1cc2cc(C)c(C)cc2[nH]c1=O)CC1CCCO1 (configuration not stated) | – | inconclusive: 25.1 µM [inhibitor, single point] |
| O=C(CC(C(=O)O)c1ccc(Cl)cc1)c1ccccc1 (configuration not stated) | inactive: 5.67% | – |
| CCN(CC)CCn1c(NCc2cccc(OC)c2)nc2ccccc21 | inactive: -7.35% | – |
| O=C(CSc1nnc(COc2ccc(Cl)cc2)o1)N1c2ccccc2CCc2ccccc21 | inactive: -3.81% | – |
| O=C(/C=C/c1ccccc1)N(Cc1cccs1)C1CCS(=O)(=O)C1 (configuration not stated) | – | inconclusive: 22.4 µM [inhibitor, single point] |
| COc1cc(NC(=O)C2CCCCC2)c(OC)cc1NC(=O)c1ccco1 | – | inconclusive: 39.8 µM [inhibitor, single point] |
| COc1ccc2oc(=O)c(C(=O)n3ccc(C)n3)cc2c1 | – | inconclusive: 28.2 µM [inhibitor, partial curve] |
| CC(=O)N1CCC(=NNc2ccc(S(=O)(=O)N3CCOCC3)cc2[N+](=O)[O-])CC1 | inactive: -7.52% | – |
| CCOc1ccccc1/C=N\Nc1cnn(Cc2ccccc2)c(=O)c1Cl | – | inconclusive: 22.4 µM [inhibitor, partial curve] |
| CC(C)(C)NC[C@H](O)c1cc(O)cc(O)c1 | inactive: 0.527% [at 25.5 µM] | – |
| Cc1ccc(NC2=CC(=O)OC(C)C2)cc1 (configuration not stated) | – | inconclusive: 35.5 µM [inhibitor, single point] |
| Cc1ccc2nc(C)cc(OCC(=O)O)c2c1 | – | inconclusive: 31.6 µM [inhibitor, single point] |
| Cc1ccn2c(=O)cc(C)nc2c1 | – | inconclusive: 31.6 µM [inhibitor, partial curve] |
| N#Cc1ccc(CSc2nnc(Cc3cccs3)n2Cc2ccco2)cc1 | inactive: 1.61% | – |
| COC(=O)[C@@]1(Cc2ccccc2)[C@H]2c3cc(C(=O)N(C)C)n(Cc4nc5ccccc5[nH]4)c3C[C@H]2CN1C(=O)c1ccccc1 | – | inconclusive: 31.6 µM [inhibitor, single point] |
| Cc1ccc(CNC(=O)Cc2ccc(-n3cccc3)cc2)cc1 | inactive: 7.29% | – |
| CCn1c(-c2cc(-c3ccc(C)c(C)c3)nc3ccccc23)n[nH]c1=S | – | inconclusive: 31.6 µM [inhibitor, partial curve] |
| CCn1c(C)nc2cc(C(=O)N/N=C(\C)c3ccccc3O)ccc21 | – | inconclusive: 2.51 µM [inhibitor, partial curve] |
| COc1cc(/C=N\NC(=O)c2sc(N)nc2C)cc(OC)c1OC | – | inconclusive: 39.8 µM [inhibitor, single point] |
| Cc1ccc(S(=O)(=O)c2c(N)n(NC(=O)c3ccco3)c3nc4ccccc4nc23)cc1 | – | inconclusive: 25.1 µM [inhibitor, partial curve] |
| NNc1nc2sc3c(c2c(=O)n1C1CCCCC1)CCN(Cc1ccccc1)C3 | – | inconclusive: 39.8 µM [inhibitor, single point] |
| COc1ccccc1NC(=O)Cn1cc(C(=O)c2ccco2)c2ccccc21 | – | inconclusive: 35.5 µM [inhibitor, single point] |

| SMILES | activity change, negative = inhibition | Potency |
| --- | --- | --- |
| COc1ccc(-n2nnnc2SCC(=O)Nc2cccc(NC(C)=O)c2)cc1OC | inactive: -1.02% | – |
| C/C=C\C(=O)Nc1cccc(C2=NOC3(C2)C[C@H](C(N)=O)N(C(=O)/C=C/CC)C3)c1 (some centres not stated) | inactive: 4.73% | – |
| CNC(=S)N/N=C/c1ccccc1OCC(=O)O | inactive: -17.2% | – |
| O=c1c2ccccc2nc(/C=C/c2cccnc2)n1CCc1ccccc1 | – | active: 15.8 µM |
| Cc1nn(-c2ccccc2)c(C)c1/C=N/n1cnnc1 | inactive: 3.47% | – |
| CCOCCCNC(=S)Nc1cc(C)cc(C)c1 | inactive: 7.62% | – |
| CCn1cc(C(=O)Nc2ccc(C(=O)N3CCCC3)cc2)c(=O)c2ccc(C)nc21 | inactive: 0.0951% | – |
| Cc1cc2cc(CNC(=O)c3ccc(S(=O)(=O)N4CCCC4)cc3)ccc2n1C | – | inconclusive: 35.5 µM [inhibitor, single point] |
| O=C(/C=C/c1ccco1)Nc1nc(-c2ccccc2)cs1 | inactive: 30.9% | – |
| Cc1ccc(S(=O)(=O)Nc2ccccc2C(N)=O)cc1 | – | inconclusive: 28.2 µM [inhibitor, partial curve] |
| O=C(CCN1C(=O)c2cccc3cccc(c23)C1=O)Nc1ccccc1 | – | inconclusive: 39.8 µM [inhibitor, single point] |
| CCc1nnc(NC(=O)c2ccc(Cl)c(S(=O)(=O)N3CCc4ccccc4C3)c2)s1 | inactive: -6% | – |
| Nc1ccc2c(c1)OC1(CCCCC1)O2 | – | inconclusive: 35.5 µM [inhibitor, single point] |
| N#Cc1ccc(Oc2nc(C(N)=O)cc(-c3ccccc3)n2)cc1 | – | inconclusive: 39.8 µM [inhibitor, single point] |
| COc1ccccc1/C=C/C(=O)OCC(=O)Nc1ccc(Cl)cn1 | – | inconclusive: 39.8 µM [inhibitor, single point] |
| CCOC(=O)c1[nH]c2ccc(OC)cc2c1NC(=O)CCN1CCSCC1 | – | inconclusive: 31.6 µM [inhibitor, partial curve] |
| Cc1c(C(=O)N2CCOCC2)[nH]c2ccc(OCc3ccccc3)cc12 | – | inconclusive: 31.6 µM [inhibitor, partial curve] |
| CC1CCN(CCCNC(=O)c2coc3nc4ccccc4nc23)CC1 | – | inconclusive: 28.2 µM [inhibitor, partial curve] |
| Cc1cccc(NC(=O)CSc2nc(C)c(CC(=O)c3ccc(Br)cc3)c(C)c2C#N)c1C | inactive: 6.41% | – |
| CCN1CCc2c(C#N)c(N3CCOCC3)nc(N3CCOCC3)c2C1 | – | inconclusive: 28.2 µM [inhibitor, partial curve] |
| Nc1ccc(C(=O)N/N=C\C=C\c2ccc([N+](=O)[O-])cc2)cc1 | inactive: 3.55% | – |
| CCOC(=O)c1c(CSC(=N)N)n(-c2ccc(Br)cc2)c2cc(Br)c(OC(C)=O)cc12 | – | inconclusive: 39.8 µM [inhibitor, single point] |
| Cc1[nH]c2ccccc2c1C(=O)COC(=O)c1ccc2c(=O)n3c(nc2c1)CCC3 | inactive: 5.03% | – |
